The whole screen tested about 360,000 compounds, of which about 7,500 (2.1%) were called active. Inconclusive means that the source gave no clear call. Such entries were picked first, then a sample of the others. The call rests on the fitted dose curve; in most records, active means well fitted cell-killing curve with a large enough effect; inconclusive means small, poorly fitted or top-dose-only effect, or effect the other way, or another doubt; inactive means no such curve, though single readings can be large or run the other way. Potencies of inconclusive entries are left out as doubtful fits.
Experiment: qHTS for induction of synthetic lethality in tumor cells producing 2HG: qHTS for the HT-1080-IDH1KD cell line;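 on activity, negative = toxicity: 0% = DMSO wells and -100% = cell-free medium wells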
Conditions: HT-1080 IDH1 knockdown viability, ATP luminescence, 48 h; activity, negative = toxicity: at 46.1 µM (top of the series) unless noted
Procedure, shortened: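 IDH1KD HT-1080 cells, 750/well, RPMI + 5% FBS; compound pinned after 2 h settling; 48 h, 37 °C; CellTiter-Glo luminescence; % activity normalised to DMSO and no-cell wells; curves fitted, classed by r2 and efficacy.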
Potency means the concentration at half of the fitted maximal effect; tags describe the fitted curve by direction and shape.

Row | Compound | Potency | activity, negative = toxicity
1 | CC(C)c1ccc(NC(=O)NC2CCCCC2)cc1 | inconclusive [cytotoxic, single point] | –
2 | CCCCOc1ccc(C(=O)Nc2ccc(SC(F)F)cc2)cc1OC | – | inactive: -13.5%
3 | O=C(CCl)Nc1ccc(S(=O)(=O)NC2=NCCCCC2)cc1 | active: 18.4 µM | –
4 | Cc1csc(NC(=O)NC2(C(F)(F)F)Oc3ccccc3O2)n1 | inconclusive [cytotoxic, single point] | –
5 | O=C(/C=C/c1ccccc1)c1ccccc1 | active: 20.6 µM | –
6 | Cc1cc(-c2ccc(C)c(S(=O)(=O)NCc3cccc(Br)c3)c2)on1 | inconclusive [cytotoxic, single point] | –
7 | CC(C)CCNc1nc2c(c(=O)n(Cc3cccc(F)c3)c(=O)n2C)n1C | inconclusive [cytotoxic, single point] | –
8 | COc1ccc(N(C)S(=O)(=O)c2cccc(C(=O)Nc3nc4ccccc4[nH]3)c2)cc1 | inconclusive [cytotoxic, partial curve, poor fit] | –
9 | O=C(Cc1ccccc1)NC(=S)Nc1cc(C(F)(F)F)ccc1Cl | inconclusive [cytotoxic, single point] | –
10 | O=C1/C(=C/C=C/c2ccccc2)Oc2c1ccc(O)c2CN1CCN(CCO)CC1 | inconclusive [cytotoxic, single point] | –
11 | NC1=NC[C@@H](CC2CCCCC2)N1CCc1cc(C(F)(F)F)cc(C(F)(F)F)c1 | inconclusive [cytotoxic, single point] | –
12 | CCCn1nnnc1SCC(=O)NCc1ccc(OC)cc1 | – | inactive: 7.26%
13 | COc1ccc(/C=C/C(=O)NC(=S)Nc2ccc(C(=O)O)cc2)cc1 | – | inactive: 4.27%
14 | O=C(CCCl)Nc1nnc(SCC(=O)NC2CCCC2)s1 | active: 29.1 µM | –
15 | Cn1c(=O)c([N+](=O)[O-])c(-n2cnc3ccccc32)c2ccccc21 | inconclusive [cytotoxic, single point] | –
16 | COc1ccc(CN2CCC2(C)C(=O)Nc2cccc(NS(C)(=O)=O)c2)c2ccccc12 (configuration not stated) | inconclusive [cytotoxic, single point] | –
17 | NS(=O)(=O)c1ccc(NC(=O)COC(=O)c2ccc(Cl)cc2[N+](=O)[O-])cc1 | – | inactive: 1.13%
18 | COc1cc(NC(=O)C2=CC(c3cccs3)=NS(=O)(=O)N2C)cc(OC)c1OC | – | inactive: 0.421%
19 | CNc1ccccc1C(C)(C)c1cc(-c2cc(C)cc(C)c2)no1 | – | inconclusive: -31.1% [cytotoxic]
20 | NC1=C(Cl)C(=O)c2ccc(S(N)(=O)=O)cc2C1=O | active: 6.51 µM | –
21 | O=C(Sc1ccccc1)c1cccc(Cn2cc(C(F)(F)F)ccc2=O)c1 | active: 23.1 µM | –
22 | COc1ccc(Cc2c(-c3ccco3)nc3ccc(Br)cn23)c(C)c1 | active: 20.6 µM | –
23 | CC(=O)n1nc(-c2ccc(Cl)cc2)nc1NCc1ccco1 | inconclusive [cytotoxic, single point] | –
24 | COC(=O)C1=C(C)N(c2ccc(Cl)c(Cl)c2)C(=O)C1 | inconclusive [cytotoxic, single point] | –
25 | O=C1C=C(Nc2ccc(Cl)cc2)CC(c2ccco2)C1 (configuration not stated) | – | inconclusive: -30.2% [cytotoxic]
26 | c1ccc(C2=NNC(=NC3CC3)SC2)cc1 | active: 17.8 µM | –

Row | Compound | Potency | activity, negative = toxicity
27 | COc1ccc2[nH]c(C(=O)Nc3ccc(F)cc3Br)cc2c1 | – | inactive: -17.4%
28 | Cc1nc2sc(C(=O)OC(C)C)c(N)c2c(C)c1C | – | inactive: 18.1%
29 | O=[N+]([O-])c1cccnc1N1CCC(c2cc(-c3ccc(Cl)cc3)n[nH]2)CC1 | – | inactive: -18%
30 | COc1ccc2[nH]c3c(C)c4ccncc4c(C)c3c2c1 | active: 18.4 µM | –
31 | COc1cc(OC)c(C2Nc3cccc4cccc(c34)N2)c(OC)c1 | – | inactive: -10.7%
32 | COc1ccc(C(NC(=O)c2cc(OC)ccc2OC)c2ccccc2)cc1 (configuration not stated) | inconclusive [cytotoxic, partial curve] | –
33 | CC(C)CN1CCN=C1Nc1ccccc1 | – | inactive: 17%
34 | CCCCN(CC(O)COc1cccc(C)c1)CC(O)COc1cccc(C)c1 (configuration not stated) | active: 18.4 µM | –
35 | Cc1ccc(NCC(=O)Nc2cccc(S(=O)(=O)N(C)C)c2)cc1S(=O)(=O)N1CCCCCC1 | inconclusive [cytotoxic, partial curve] | –
36 | O=C(Nc1ccccc1Cl)c1cc(C2CCCN(C(=O)C3CCCCC3)C2)on1 (configuration not stated) | inconclusive [cytotoxic, single point] | –
37 | CC(=O)c1sc(NC(=O)c2oc3ccc(F)cc3c2C)nc1C | – | inactive: 15.4%
38 | Cc1cc2nc(C(C)(C)C)c(Cc3ccccc3C(F)(F)F)n2c(C)c1Br | inconclusive [cytotoxic, partial curve] | –
39 | OCc1ccccc1-c1nc(NCc2ccccc2)nc2ccsc12 | inconclusive [rising, single point] | –
40 | Cc1cc(=O)n2ccsc2n1 | – | inactive: 2.09%
41 | Cc1ccc(C(OCC(O)CNC(C)c2ccccc2)c2ccccc2)cc1 (configuration not stated) | active: 18.4 µM | –
42 | N#Cc1c[nH]n2c(=O)c3c(nc12)CCC3 | – | inactive: 9.24%
43 | CC(C)(C)n1ncc2c(=O)n(CC(=O)NCc3ccc(F)cc3)cnc21 | active: 13 µM | –
44 | C[n+]1c2n(c3ccccc31)N=C(c1cc(C(C)(C)C)c(O)c(C(C)(C)C)c1)CS2 | active: 7.31 µM | –
45 | COc1ccc(Nc2c3ccccc3nc3ccccc23)cc1 | active: 11.6 µM | –
46 | CCOC(=O)c1cccc(NC(=O)/C=C/c2ccc3c(c2)OCO3)c1 | inconclusive [cytotoxic, full curve, poor fit] | –
47 | CC(=O)Cc1nsc(NC(=O)c2cc(-c3cccc(C(F)(F)F)c3)oc2C)n1 | – | inconclusive: -0.131% [cytotoxic]
48 | CC(=O)Nc1ccc(-c2ccnc3c2CC(C(=O)Nc2cccc(N(C)C)c2)O3)cc1 (configuration not stated) | active: 11.6 µM | –
49 | N#C/C(=N/Nc1ccc(OC(F)(F)F)cc1)C(N)=S | active: 16.4 µM | –
50 | COc1ccc(C)cc1NC(=O)CCC(=O)Nc1ccc2nc(N3CCN(C)CC3)cc(C)c2c1 | inconclusive [cytotoxic, single point] | –
51 | Cc1ccc(S(=O)(=O)NCCNC(=O)c2ccccc2)cc1 | – | inactive: 1.21%
52 | CCCc1ncc(C(O)c2ccccc2OC)n1C (configuration not stated) | – | inactive: 7.48%

Row | Compound | Potency | activity, negative = toxicity
53 | CC1(C(=O)NCCc2ccccc2)Cc2c(-c3ccccc3)ccnc2O1 (configuration not stated) | inconclusive [cytotoxic, single point] | –
54 | CS(=O)(=O)c1ccc(C(=O)OCC(=O)Nc2cccnc2Cl)cc1[N+](=O)[O-] | inconclusive [cytotoxic, single point] | –
55 | Oc1[nH]c2ccccc2c1N=NC(=S)N1CCOCC1 | inconclusive [cytotoxic, full curve] | –
56 | O=C(CC[C@H]1O[C@@H](n2ccc(=O)[nH]c2=O)[C@H](O)[C@@H]1O)NCc1ccc2c(c1)OCO2 | – | inactive: 21.2%
57 | COc1ccc(NC(=O)C2C3C=CC(C3)C2C(=O)O)cc1 (configuration not stated) | inconclusive [cytotoxic, single point] | –
58 | CC(=O)c1cccc(CN2CCCC(C(=O)Nc3ccc(-c4ccco4)cc3)C2)c1 (configuration not stated) | inconclusive [cytotoxic, single point] | –
59 | c1ccc(Nc2ccnc(Nc3ccccc3)n2)cc1 | inconclusive [cytotoxic, single point] | –
60 | CC(C)OP(=O)(c1ccc(N(C)C)cc1)C(Nc1ccccc1)c1ccccc1 (configuration not stated) | inconclusive [cytotoxic, partial curve] | –
61 | Cc1ccc(NS(=O)(=O)c2ccc(Cl)c(C(=O)Nc3ccccc3-c3nc4ccccc4[nH]3)c2)cc1C | active: 8.2 µM | –
62 | CC(=O)c1ccc(N2CCN(S(=O)(=O)c3cc(-c4cc(C)no4)ccc3C(C)C)CC2)cc1 | – | inactive: -17.4%
63 | COc1cccc(-c2cc(C(=O)Nc3c(C)nn(Cc4ccccc4C)c3C)no2)c1 | inconclusive [cytotoxic, single point] | –
64 | Cc1cc(C(=O)NCCCN2CCN(c3cc(Cl)ccc3C)CC2)n(-c2ccccc2)n1 | inconclusive [cytotoxic, single point] | –
65 | Cc1ccc2cc(C)c(SCC#N)nc2c1 | – | inactive: 12.8%
66 | COc1ccc(C(=O)Cc2ccc(OC)c(OC)c2)c(OC)c1 | – | inactive: 6.82%
67 | COc1ccc(C(=O)CSc2nnc(NC(=O)C3CC(=O)N(c4ccccc4C)C3)s2)cc1 (configuration not stated) | – | inconclusive: 30.7%
68 | N#CCC(=N)N1CCN(c2ccc(F)cc2)CC1 | – | inactive: 3.39%
69 | COC(=O)[C@H]1C[C@@]2(O)CN(S(=O)(=O)c3ccc(C)cc3)C[C@@]2(OC(=O)Nc2cccs2)C[C@H]1C(=O)OC | – | inactive: -8.21%
70 | C/C(=N\Nc1ccc(S(=O)(=O)N2CCCCC2)cn1)c1cccc(Br)c1 | inconclusive [cytotoxic, single point] | –
71 | Cc1ccc(-c2cn(-c3ccc(SC(F)F)cc3)c3[n+]2CCC3)cc1 | inconclusive [cytotoxic, partial curve] | –
72 | COc1ccccc1Cc1c(-c2ccccc2)nc2ccc(Br)cn12 | inconclusive [cytotoxic, single point] | –
73 | N#Cc1ccc(Oc2nc(C(N)=O)cc(-c3ccccc3)n2)cc1 | – | inactive: -0.35%
74 | COc1cccc(/C=N/Nc2ccnc(=O)[nH]2)c1O | inconclusive [cytotoxic, full curve] | –
75 | Cc1ccc(N2CC(NS(=O)(=O)c3cccnc3)CC2=O)cc1 (configuration not stated) | – | inactive: -0.91%
76 | CC(=O)N1C[C@H]2CON(C)[C@H]2C[C@H]1c1ccc(-c2cccnc2)cc1 | – | inactive: 15.4%
77 | CCC(=O)OCC(=O)C1(OC(=O)CC)[C@H](C)C[C@H]2[C@H]3[C@H]([C@@H](O)C[C@@]21C)[C@@]1(C)C=CC(=O)C=C1C[C@H]3Cl (some centres not stated) | inconclusive [rising, full curve, poor fit] | –

— PubChem BioAssay AID686971 (National Center for Advancing Translational Sciences (NCATS), 2013)
